Data reported in the supplement of paper PMC12645437, “Orthogonal IMiD-Degron Pairs Induce Selective Protein Degradation in Cells” (ACS Chemical Biology, 2025).
The list shows a part of the results.

B1: Q9UKT9 (peptide)
chain: LLCEICGFFCTQKGNLLRHIKL
B2: Q9UKT9 (peptide)
chain: FHCEQCGAIFTQKGNLLRHIKL
B3: Q9UKT9 (peptide)
chain: FLCNQCGHCFTQKGNLLRHIKL
B4: Q9UKT9 (peptide)
chain: LLCNQCGFDCTQKGNLLRHIKL
B5: Q9UKT9 (peptide)
chain: FYCPICGRRFTQKGNLLRHIKL
B6: Q9UKT9 (peptide)
chain: FKCNQCGHEFTQKGNLLRHIKL
B7: Q9UKT9 (peptide)
chain: FECSVCGHGFTQKGNLLRHIKL
B8: Q9UKT9 (peptide)
chain: FWCEVCGAQFTQKGNLLRHIKL
B9: Q9UKT9 (peptide)
chain: LGCPICGFQCTQKGNLLRHIKL
B10: Q9UKT9 (peptide)
chain: FNCSVCGHDFTQKGNLLRHIKL
B11: Q9UKT9 (peptide)
chain: FLCEICGRHFTQKGNLLRHIKL
B12: Q9UKT9 (peptide)
chain: FSCEICGHRFTQKGNLLRHIKL
B13: Q9UKT9 (peptide)
chain: FACPQCGAFFTQKGNLLRHIKL
B14: Q9UKT9 (peptide)
chain: FGCPICGHTFTQKGNLLRHIKL
B15: Q9UKT9 (peptide)
chain: FQCNVCGAQFTQKGNLLRHIKL
B16: Q9UKT9 (peptide)
chain: FLCEICGRPFTQKGNLLRHIKL
B17: Q9UKT9 (peptide)
chain: FVCPICGRSFTQKGNLLRHIKL
B18: Q9UKT9 (peptide)
chain: FQCNICGARFTQKGNLLRHIKL
B19: Q9UKT9 (peptide)
chain: FDCDICGACFTQKGNLLRHIKL
B20: Q9UKT9 (peptide)
chain: FDCNQCGANFTQKGNLLRHIKL
B21: Q9UKT9 (peptide)
chain: FMCPQCGAGFTQKGNLLRHIKL
B22: Q9UKT9 (peptide)
chain: FQCDVCGAPFTQKGNLLRHIKL
B23: Q9UKT9 (peptide)
chain: FQCPICGRCFTQKGNLLRHIKL
B24: Q9UKT9 (peptide)
chain: FNCNQCGHKFTQKGNLLRHIKL
B25: Q9UKT9 (peptide)
chain: FVCNQCGAQFTQKGNLLRHIKL
B26: Q9UKT9 (peptide)
chain: FWCNICGASFTQKGNLLRHIKL
B27: Q9UKT9 (peptide)
chain: FACDVCGAVFTQKGNLLRHIKL
B28: Q9UKT9 (peptide)
chain: FNCDVCGAPFTQKGNLLRHIKL
B29: Q9UKT9 (peptide)
chain: FDCDVCGAAFTQKGNLLRHIKL
B30: Q9UKT9 (peptide)
chain: FNCDICGACFTQKGNLLRHIKL
B31: Q9UKT9 (peptide)
chain: FICNVCGAIFTQKGNLLRHIKL
B32: Q9UKT9 (peptide)
chain: FFCDVCGAWFTQKGNLLRHIKL
B33: Q9UKT9 (peptide)
chain: FFCNVCGAWFTQKGNLLRHIKL
B34: Q9UKT9 (peptide)
chain: FWCDQCGAHFTQKGNLLRHIKL
B35: Q9UKT9 (peptide)
chain: LYCPICGFMCTQKGNLLRHIKL
B36: Q9UKT9 (peptide)
chain: FWCDVCGAWFTQKGNLLRHIKL
B37: Q9UKT9 (peptide)
chain: LRCEICGFVCTQKGNLLRHIKL
B38: Q9UKT9 (peptide)
chain: FQCEQCGACFTQKGNLLRHIKL
B39: Q9UKT9 (peptide)
chain: FVCEVCGARFTQKGNLLRHIKL
B40: Q9UKT9 (peptide)
chain: FGCSVCGHPFTQKGNLLRHIKL
B41: Q9UKT9 (peptide)
chain: FWCNQCGRPFTQKGNLLRHIKL
B42: Q9UKT9 (peptide)
chain: LFCPICGFCCTQKGNLLRHIKL
B43: Q9UKT9 (peptide)
chain: LGCNQCGFPCTQKGNLLRHIKL
B44: Q9UKT9 (peptide)
chain: FHCEICGRTFTQKGNLLRHIKL
B45: Q9UKT9 (peptide)
chain: LNCEICGFTCTQKGNLLRHIKL
B46: Q9UKT9 (peptide)
chain: FVCDICGARFTQKGNLLRHIKL
B47: Q9UKT9 (peptide)
chain: FACNVCGAAFTQKGNLLRHIKL
B48: Q9UKT9 (peptide)
chain: FCCNQCGHGFTQKGNLLRHIKL
B49: Q9UKT9 (peptide)
chain: FFCEVCGAMFTQKGNLLRHIKL
B50: Q9UKT9 (peptide)
chain: FQCNQCGAPFTQKGNLLRHIKL

Each sequence was assayed against no compound (DMSO) (assay: log2 fold change of degron read counts, EGFP-low vs EGFP+ sorted cells; higher = lower degron-EGFP level without compound (poor expression or instability)). Details: compound: DMSO control; 18 h.
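Further: jurkat cells carrying a lentiviral library of mutant zinc finger degrons fused to EGFP plus mCherry, mCherry+ cells FACS sorted, degron abundance counted by next-generation sequencing.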

Sequence	log2 fold change of degron read counts
B1	1.87
B2	-0.592
B3	-0.279
B4	0.333
B5	-3.78
B6	-1.39
B7	-1.84
B8	-0.632
B9	0.398
B10	-1.07
B11	0.078
B12	0.0965
B13	0.249
B14	-0.437
B15	-1.15
B16	-0.953
B17	-0.652
B18	0.00338
B19	-1.03
B20	-0.152
B21	-0.433
B22	-1.3
B23	0.141
B24	0.376
B25	-1.51

Sequence	log2 fold change of degron read counts
B26	0.542
B27	-1.53
B28	-0.764
B29	-0.799
B30	-0.666
B31	-0.273
B32	0.622
B33	0.934
B34	-0.288
B35	0.837
B36	1.12
B37	-0.000159
B38	-1.6
B39	-2.24
B40	0.652
B41	1.26
B42	2.33
B43	1.21
B44	-1.47
B45	-1.2
B46	-1.98
B47	-0.579
B48	0.0209
B49	-0.513
B50	-1.21
